Out of some 48,000 compounds screened, about 1,200 (2.5%) were called active. Inconclusive results (about 2%) are left out.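 The calls were made as follows: active = activation of at least 60% and not above a set upper limit (about 1 call in 100 departs from these limits); inconclusive = activation of 40% to 60%, or above that upper limit; inactive = activation under 40%.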 The list shows a part of the results.

UniProt O75388, sequence (O75388 whole entry, looked up, the tested form may be a part): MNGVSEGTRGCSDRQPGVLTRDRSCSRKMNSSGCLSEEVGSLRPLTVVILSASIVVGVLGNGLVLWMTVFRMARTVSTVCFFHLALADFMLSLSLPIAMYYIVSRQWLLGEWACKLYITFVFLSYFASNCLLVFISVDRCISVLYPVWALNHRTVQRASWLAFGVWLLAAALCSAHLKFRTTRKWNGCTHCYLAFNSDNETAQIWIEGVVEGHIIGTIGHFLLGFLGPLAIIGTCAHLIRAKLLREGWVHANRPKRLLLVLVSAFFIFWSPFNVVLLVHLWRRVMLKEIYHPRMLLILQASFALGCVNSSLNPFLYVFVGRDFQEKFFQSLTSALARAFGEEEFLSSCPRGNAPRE

The assay deals with Probable G-protein coupled receptor 32 (Homo sapiens) (UniProt O75388). The assay can be described thus: qHTS for Agonists of Human Resolvin D1 Receptor DRV1. Also: 0% is about no effect. To be noted: CHO-K1 GPR32 beta-arrestin PathHunter luminescence, 90 min; at 76.9 µM; hits give high values; zero percent set by DMSO-only wells. In a few lines:
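Agonism was scored as beta-arrestin recruitment to ProLink-fused GPR32 in stably transfected CHO-K1 cells, giving a chemiluminescent beta-Gal signal; compounds were incubated 90 min at 37 °C.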
For the molecule `Cc1cc2c(n1-c1ccc(C(=O)NCCc3ccc(Cl)cc3)cc1)CCCC2`, the activation is inactive: -18%. As to `CCC(Cn1nnc2ccccc2c1=O)NC(=O)Nc1cc(C)cc(C)c1` (centres undefined), the activation is inactive: -21.8%.

As for `CC(C)C(=O)Nc1nnc2n1CCS2`, the activation was inactive: 5.75%. For `CC(C)c1nn2c(=O)cc(COC(=O)c3cccc(NC(=O)COc4ccc(F)cc4)c3)nc2s1`, the activation is inactive: -2.58%.

For the molecule `Cc1ccc(S(=O)(=O)n2nc(C)c(S(=O)(=O)N3CCCCCC3)c2C)cc1`, the activation is inactive: -6.45%. For `Cc1ccc(C)c(CSc2nnc3[nH]c(=O)cc(C)n23)c1`, the activation is inactive: 30.6%. For the molecule `COc1ccc(C)cc1NC(=O)c1noc2c1CSc1ccccc1-2`, the activation was inactive: -3.28%. Consider `COc1ccc(C2C(C(=O)Nc3ccccc3)=C(C)Nc3c(C(=O)Nc4ccccc4)cnn32)cc1` (centres undefined), for which the activation was inactive: -28.2%. Then `CS(=O)(=O)N1CCc2cc(C(=O)N3CCN(c4cccc(Cl)c4)CC3)ccc21`, with inactive: 15.8%; and `COCCNC(=O)CCC(=O)NNc1nc2ccccc2c2nc(C)nn12`, with inactive: -0.6%.

As for `CCOc1ccccc1NC(=O)c1c(NC(=O)COc2ccc(Cl)cc2)sc2c1CCCCC2`, the activation is inactive: -0.0805%. For the molecule `Cc1ccc(C)c(CSc2nc(-c3ccccc3F)nc3c2Cc2c(CO)cnc(C)c2O3)c1`, the activation was inactive: 6.18%. Then `COc1ccc(Br)cc1C1C(C(=O)Nc2ccc(C)cc2C)=C(C)Nc2ncnn21` (centres undefined), with inactive: -6.98%. As for `Cc1ccc(NC(=O)C2(c3cccs3)CCOCC2)cc1Cl`, the figure is inactive: 15.4%.

Turning to `Cc1ccc(C)c(N2CCN(C(=O)c3cn(CC(C)C)c(=O)c4c3c3ccccc3n4C)CC2)c1`, the activation is inactive: -9.69%.

Regarding `COCCCNc1nc(NCc2ccccc2OC)c2cnn(C)c2n1`, the activation was active: 75.1%. As for `COc1ccc(NC(=O)Cn2c(=O)n(-c3cc(C)cc(C)c3)c(=O)c3oc4ccccc4c32)cc1OC`, the figure is inactive: -32.5%; as for `COc1cccc(NC(=O)Cn2nnc(C(=O)NCc3cccs3)c2N)c1`, inactive: 6.35%. `O=C(NCCc1ccccc1)c1nn(-c2ccccc2F)nc1CO`: the activation was inactive: -11.3%. With `Cc1ccc2c(CNCCc3ccccc3)c(C(=O)O)n(Cc3ccccc3C)c2c1`, the activation is active: 65.5%. As for `COc1ccc(S(=O)(=O)NCc2ccc3c(c2)CCN3C(=O)c2ccccc2)cc1OC`, the activation was inactive: -20.9%. For `COC(=O)c1ccc(Cl)cc1NC(=O)N1CC2CCCN2c2ccccc21` (centres undefined), the activation is inactive: -10.7%. Then `CCOC(=O)C1CCN(c2cc3c(cc2NC(=O)c2ccc(Cl)cc2)n(C)c(=O)n3C)CC1`, with inactive: 3.94%; and `Cc1cc(Nc2ccccc2F)n2nc(-c3ccccc3)nc2n1`, with inactive: 6.48%; and `COc1ccc(NC(=O)CN2C(=O)CCn3nc(-c4cccn4C)cc32)cc1`, with inactive: 12%. `Cc1cc(C)c(Nc2nc3ccccc3n3c(C)nnc23)c(C)c1`: the activation was inactive: -9.04%. Regarding `COc1ccccc1OCCn1c(NC(=O)c2ccccc2Cl)nc2ccccc21`, the activation is inactive: -28.8%. As to `Cc1ccc(NC(=O)C(=O)NCC(c2cccnc2)N2CCN(Cc3ccccc3)CC2)cc1C` (centres undefined), the activation was inactive: -9.3%.

On to `CCN(CC)C(=O)Cn1c(=O)cc(C)c2c(C)nn(-c3cccc(Cl)c3C)c21`, for which the activation is active: 94%. Turning to `COc1cccc(CNC(=O)C2CCC(CNS(=O)(=O)c3ccc4c(c3)CCCC(=O)N4)CC2)c1` (centres undefined), the activation was inactive: 9.71%. Take `Cc1ccc(NC(=O)CSc2nnc3scc(-c4ccc(Cl)cc4)n23)cc1`: the activation is inactive: 1.96%.

As to `CNc1c(NC(=O)c2ccc(OC)c(OC)c2)c(=O)oc2ccccc12`, the activation was inactive: 9.52%.

As for `CCOc1ccc(-c2cc(C(=O)N3CCN(c4cc(Cl)ccc4C)CC3)c3ccccc3n2)cc1`, the activation was inactive: -9.61%.

For the molecule `CCN(CC)CCCNc1oc(/C=C/c2ccc(OC)c(OC)c2)nc1C#N`, the activation was inactive: -16.3%. Consider `COc1ccc(NC(=O)Cn2cc(S(=O)(=O)N3CCN(c4ccccc4F)CC3)c3ccccc3c2=O)cc1Cl`, for which the activation is inactive: -14%.

On to `Cc1ccc(Nc2nc3nonc3nc2Nc2cccc(C(F)(F)F)c2)cc1Cl`, for which the activation is inactive: 15.6%. For the molecule `CCOC(=O)C1=C(CN2CCN(c3ccc(OC)cc3)CC2)NC(=O)NC1c1ccc(OC)cc1` (centres undefined), the activation was inactive: -17.5%.

As to `Cc1ccc(NC(=O)C(Cc2c[nH]c3ccccc23)NC(=O)OC(C)(C)C)c(C)c1` (centres undefined), the activation is inactive: -13.3%. As for `Cc1cc(C)cc(NC(=O)NCCc2c(C)nn(C)c2C)c1`, the activation is inactive: 5.65%. In the case of `Cc1cc2c(cc1S(=O)(=O)CCC(=O)N1CCC(C)CC1)OCC(=O)N2`, the activation is inactive: -0.0125%.

`CCc1ccc(C(=O)c2cn(CC(=O)Nc3ccc4c(c3)OCO4)c3ccc(CC)cc3c2=O)cc1`: the activation was inactive: 16.2%. For `CCC(C)NC(=O)CCCN1C(=O)CCn2nc(-c3cccn3C)cc21` (centres undefined), the activation is inactive: 6.88%. Consider `COc1ccc(-c2ccc3c(N)c(C(=O)c4ccc(OC)c(OC)c4)sc3n2)cc1`, for which the activation is inactive: -7.11%. As for `CCc1ccc(-n2c(=O)c3c4c(sc3n(CC(=O)c3ccc(F)cc3)c2=O)CCC4)cc1`, the activation was inactive: -17.7%. On to `CCCc1cc(=O)[nH]c(SCC(=O)N2CCN(c3ccccc3)CC2)n1`, for which the activation is inactive: -3.51%.

Turning to `COc1ccc(CNC(=O)CSCc2nc(-c3ccccc3C)oc2C)cc1`, the activation was inactive: -10.8%. Then `COc1ccc(CNC(=O)c2ccc(-c3nc(CSc4ccccc4)c(C)o3)cc2)cc1OC`, with inactive: 8.67%; and `CCc1cccc(NC(=O)COC(=O)c2cn(CC)c3nc(C)ccc3c2=O)c1`, with inactive: 3.06%; and `CC(C)c1nn2c(=O)cc(COC(=O)c3ccc(NC(=O)COc4ccccc4)cc3)nc2s1`, with inactive: -18.1%. As for `COc1ccccc1C(=O)Nc1ccccc1OCc1cc(=O)n2c(C)csc2n1`, the figure is inactive: -4.82%; as for `O=S(=O)(c1ccc(-c2cc(C(F)(F)F)on2)s1)N1CCN(c2ccccc2F)CC1`, inactive: -1.27%.

Turning to `COc1ccc(NC(=O)CN2C(=O)CCn3nc(-c4cccn4C)cc32)cc1Cl`, the activation was inactive: -16.9%. For the molecule `CCCN1CCN(c2ncnc3sc(C(=O)Nc4ccc(C(C)C)cc4)c(C)c23)CC1`, the activation is inactive: -6.97%. Then `CCOC(=O)c1sc2cccc(F)c2c1S(=O)(=O)NCc1ccccc1Cl`, with inactive: -16.1%.

The values above are taken from PubChem BioAssay AID1346428 (National Center for Advancing Translational Sciences (NCATS), 2018).
